Results reported in patent US5695751A, “Enhancing delivery of large neutral amino acid drugs” (Cornell Research Foundation, Inc., priority 1995, dated 1997).

Assay: LD10 dose of melphalan
Settings: mice, intraperitoneal, previously established

N[C@@H](Cc1ccc(N(CCCl)CCCl)cc1)C(=O)O [Melphalan, 4-[bis(2-chloroethyl)amino]-L-phenylalanine]
LD10 dose (dose where 10% die): 11.8 μmole/kg body weight
